# Laboratory results from PMC9911399, “Two distinct binding modes provide the RNA-binding protein RbFox with extraordinary sequence specificity”.
# Numbering of substitutions follows the chain as printed; changes in the protein carry UniProt numbers. The list shows a part of the results.
# T1: RBFOX1 RRM (Homo sapiens, UniProt Q9NWB1 109-208)
# T1 sequence: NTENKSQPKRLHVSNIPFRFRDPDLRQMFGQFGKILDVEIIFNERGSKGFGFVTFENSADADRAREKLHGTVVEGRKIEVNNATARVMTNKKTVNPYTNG
# B1: UCAGGUG (DNA:RNA)
# RNA: GGGAGACCGGAAUUCAGAUUGUCCUCAGGUGUUAAAUCCCGUCGUAGCCACCA
# DNA 1: CAATCTGAATTCCGGTCTCCC
# DNA 2: TGGTGGCTACGACGGGATT
# B2: ACAGAGU (DNA:RNA)
# RNA: B1 RNA with U25A, G29A, U30G, G31U
# DNA 1: CAATCTGAATTCCGGTCTCCC
# DNA 2: TGGTGGCTACGACGGGATT
# B3: UCUCUGA (DNA:RNA)
# RNA: B1 RNA with A27U, G28C, G29U, U30G, G31A
# DNA 1: CAATCTGAATTCCGGTCTCCC
# DNA 2: TGGTGGCTACGACGGGATT
# B4: GCCAAUU (DNA:RNA)
# RNA: B1 RNA with U25G, A27C, G28A, G29A, G31U
# DNA 1: CAATCTGAATTCCGGTCTCCC
# DNA 2: TGGTGGCTACGACGGGATT
# B5: GUUGCUC (DNA:RNA)
# RNA: B1 RNA with U25G, C26U, A27U, G29C, G31C
# DNA 1: CAATCTGAATTCCGGTCTCCC
# DNA 2: TGGTGGCTACGACGGGATT
# B6: CUUUGGC (DNA:RNA)
# RNA: B1 RNA with U25C, C26U, A27U, G28U, U30G, G31C
# DNA 1: CAATCTGAATTCCGGTCTCCC
# DNA 2: TGGTGGCTACGACGGGATT
# B7: UGUGAUU (DNA:RNA)
# RNA: B1 RNA with C26G, A27U, G29A, G31U
# DNA 1: CAATCTGAATTCCGGTCTCCC
# DNA 2: TGGTGGCTACGACGGGATT
# B8: AGGUUGA (DNA:RNA)
# RNA: GGGAGACCGGAAUUCAGAUUGUCCAGGUUGAUUAAAUCCCGUCGUAGCCACCA
# DNA 1: CAATCTGAATTCCGGTCTCCC
# DNA 2: TGGTGGCTACGACGGGATT
# B9: GAAGCAA (DNA:RNA)
# RNA: B1 RNA with U25G, C26A, G29C, U30A, G31A
# DNA 1: CAATCTGAATTCCGGTCTCCC
# DNA 2: TGGTGGCTACGACGGGATT
# B10: GCGAAGC (DNA:RNA)
# RNA: B8 RNA with A25G, G26C, U28A, U29A, A31C
# DNA 1: CAATCTGAATTCCGGTCTCCC
# DNA 2: TGGTGGCTACGACGGGATT
# B11: CAGGUCU (DNA:RNA)
# RNA: B8 RNA with A25C, G26A, U28G, G30C, A31U
# DNA 1: CAATCTGAATTCCGGTCTCCC
# DNA 2: TGGTGGCTACGACGGGATT
# B12: CUUCGCA (DNA:RNA)
# RNA: B8 RNA with A25C, G26U, G27U, U28C, U29G, G30C
# DNA 1: CAATCTGAATTCCGGTCTCCC
# DNA 2: TGGTGGCTACGACGGGATT
# B13: UCAACCC (DNA:RNA)
# RNA: B1 RNA with G28A, G29C, U30C, G31C
# DNA 1: CAATCTGAATTCCGGTCTCCC
# DNA 2: TGGTGGCTACGACGGGATT
# B14: CAUUACU (DNA:RNA)
# RNA: B8 RNA with A25C, G26A, G27U, U29A, G30C, A31U
# DNA 1: CAATCTGAATTCCGGTCTCCC
# DNA 2: TGGTGGCTACGACGGGATT
# B15: CAAGGUA (DNA:RNA)
# RNA: B1 RNA with U25C, C26A, G31A
# DNA 1: CAATCTGAATTCCGGTCTCCC
# DNA 2: TGGTGGCTACGACGGGATT
# B16: GUAUGAA (DNA:RNA)
# RNA: B8 RNA with A25G, G26U, G27A, U29G, G30A
# DNA 1: CAATCTGAATTCCGGTCTCCC
# DNA 2: TGGTGGCTACGACGGGATT
# B17: GACGUCA (DNA:RNA)
# RNA: B8 RNA with A25G, G26A, G27C, U28G, G30C
# DNA 1: CAATCTGAATTCCGGTCTCCC
# DNA 2: TGGTGGCTACGACGGGATT
# B18: AAGUCUU (DNA:RNA)
# RNA: B8 RNA with G26A, U29C, G30U, A31U
# DNA 1: CAATCTGAATTCCGGTCTCCC
# DNA 2: TGGTGGCTACGACGGGATT
# B19: GUACGGA (DNA:RNA)
# RNA: B8 RNA with A25G, G26U, G27A, U28C, U29G
# DNA 1: CAATCTGAATTCCGGTCTCCC
# DNA 2: TGGTGGCTACGACGGGATT
# B20: GGCGCGU (DNA:RNA)
# RNA: B8 RNA with A25G, G27C, U28G, U29C, A31U
# DNA 1: CAATCTGAATTCCGGTCTCCC
# DNA 2: TGGTGGCTACGACGGGATT
# B21: GGUCUGU (DNA:RNA)
# RNA: B8 RNA with A25G, G27U, U28C, A31U
# DNA 1: CAATCTGAATTCCGGTCTCCC
# DNA 2: TGGTGGCTACGACGGGATT
# B22: CUUAGUU (DNA:RNA)
# RNA: B1 RNA with U25C, C26U, A27U, G28A, G31U
# DNA 1: CAATCTGAATTCCGGTCTCCC
# DNA 2: TGGTGGCTACGACGGGATT
# B23: GUAGAAG (DNA:RNA)
# RNA: B1 RNA with U25G, C26U, G29A, U30A
# DNA 1: CAATCTGAATTCCGGTCTCCC
# DNA 2: TGGTGGCTACGACGGGATT
# B24: AGCCGUC (DNA:RNA)
# RNA: B8 RNA with G27C, U28C, U29G, G30U, A31C
# DNA 1: CAATCTGAATTCCGGTCTCCC
# DNA 2: TGGTGGCTACGACGGGATT
# B25: ACAAAUA (DNA:RNA)
# RNA: B1 RNA with U25A, G28A, G29A, G31A
# DNA 1: CAATCTGAATTCCGGTCTCCC
# DNA 2: TGGTGGCTACGACGGGATT
# B26: CUGUUAC (DNA:RNA)
# RNA: B8 RNA with A25C, G26U, G30A, A31C
# DNA 1: CAATCTGAATTCCGGTCTCCC
# DNA 2: TGGTGGCTACGACGGGATT
# B27: AGAUGUU (DNA:RNA)
# RNA: B8 RNA with G27A, U29G, G30U, A31U
# DNA 1: CAATCTGAATTCCGGTCTCCC
# DNA 2: TGGTGGCTACGACGGGATT
# B28: GCCACUG (DNA:RNA)
# RNA: B1 RNA with U25G, A27C, G28A, G29C
# DNA 1: CAATCTGAATTCCGGTCTCCC
# DNA 2: TGGTGGCTACGACGGGATT
# B29: CGGGAUU (DNA:RNA)
# RNA: B8 RNA with A25C, U28G, U29A, G30U, A31U
# DNA 1: CAATCTGAATTCCGGTCTCCC
# DNA 2: TGGTGGCTACGACGGGATT
# B30: UUGAGGU (DNA:RNA)
# RNA: B8 RNA with A25U, G26U, U28A, U29G, A31U
# DNA 1: CAATCTGAATTCCGGTCTCCC
# DNA 2: TGGTGGCTACGACGGGATT
# B31: UUAUGGC (DNA:RNA)
# RNA: B1 RNA with C26U, G28U, U30G, G31C
# DNA 1: CAATCTGAATTCCGGTCTCCC
# DNA 2: TGGTGGCTACGACGGGATT
# Target: T1, RBFOX1 RRM
# Experiment: EMSA; HiTS-Eq, 1 nM pool, 10 min; buffer printed only for the single-RNA assays: 10 mM Tris pH 7.5, 150 mM NaCl, 3.4 mM EDTA, 0.001% NP-40, 30 C
# Details: tags: His6 N-terminal (pET28a); label: 5' 32P
# Summary of the method: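 These values rest on relative association constants, computed from read-count changes of each RNA species versus the control reaction and normalised to the cognate motif. Reads came from free RNA recovered by 8% native PAGE after purified RbFox RRM (wild type or mutant) at increasing concentrations was equilibrated for 10 min in 50 µL with 1 nM of a 5′-radiolabelled pool with 7 randomized nucleotides and DNA-annealed flanks.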
row,Binder,binding signal
1,B1,0.019 KA relative to UGCAUGU
2,B2,0.00631 KA relative to UGCAUGU
3,B3,0.0157 KA relative to UGCAUGU
4,B4,0.00519 KA relative to UGCAUGU
5,B5,0.0265 KA relative to UGCAUGU
6,B6,0.0196 KA relative to UGCAUGU
7,B7,0.0207 KA relative to UGCAUGU
8,B8,0.0183 KA relative to UGCAUGU
9,B9,0.0115 KA relative to UGCAUGU
10,B10,0.0105 KA relative to UGCAUGU
11,B11,0.013 KA relative to UGCAUGU
12,B12,0.0119 KA relative to UGCAUGU
13,B13,0.00038 KA relative to UGCAUGU
14,B14,0.00134 KA relative to UGCAUGU
15,B15,0.00475 KA relative to UGCAUGU
16,B16,0.0136 KA relative to UGCAUGU

row,Binder,binding signal
1,B17,0.00822 KA relative to UGCAUGU
2,B18,0.00703 KA relative to UGCAUGU
3,B19,0.00829 KA relative to UGCAUGU
4,B20,0.0157 KA relative to UGCAUGU
5,B21,0.0145 KA relative to UGCAUGU
6,B22,0.0119 KA relative to UGCAUGU
7,B23,0.00991 KA relative to UGCAUGU
8,B24,0.00905 KA relative to UGCAUGU
9,B25,0.000866 KA relative to UGCAUGU
10,B26,0.0136 KA relative to UGCAUGU
11,B27,0.00932 KA relative to UGCAUGU
12,B28,0.0162 KA relative to UGCAUGU
13,B29,0.03 KA relative to UGCAUGU
14,B30,0.0187 KA relative to UGCAUGU
15,B31,0.00848 KA relative to UGCAUGU
